Laboratory results reported in PMC7819943, “Rice protein-binding microarrays: a tool to detect cis-acting elements near promoter regions in rice”.
The other results are listed elsewhere or left out.

molecular target: T1, OsWOX13 (Oryza sativa, UniProt Q5QMM3 1-267); assay: protein-binding microarray (RPBM); PBS, 2% BSA, 51.3 ng/ul salmon testes DNA, 50 uM zinc acetate, 200 nM TF, 25 C, 1 h; high values mean tight binding; details: protein: recombinant; tags: N-terminal polyhistidine and DsRed monomer fusion (pET32a); label: CyDye5-dUTP incorporated in the synthesized complementary strand; 3' TTTTT single-stranded linker to array surface; dsDNA, one strand shown
T1 sequence: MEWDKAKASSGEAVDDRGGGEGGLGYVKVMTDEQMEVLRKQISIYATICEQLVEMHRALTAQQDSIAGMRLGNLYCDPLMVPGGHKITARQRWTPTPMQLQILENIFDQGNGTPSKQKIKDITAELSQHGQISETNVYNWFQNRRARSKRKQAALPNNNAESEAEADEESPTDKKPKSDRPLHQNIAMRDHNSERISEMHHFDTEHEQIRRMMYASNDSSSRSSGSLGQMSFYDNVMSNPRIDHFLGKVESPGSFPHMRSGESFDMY
In short: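 The binding signal is fluorescence intensity per feature, in arbitrary units, read on an Axon 4000B scanner. Polyhistidine- and DsRed-tagged transcription factors (N-terminal fusions) from E. coli BL21-CodonPlus were purified on Ni–NTA and applied at 200 nM for 1 h at 25 °C to a double-stranded, BSA-blocked custom Agilent array in buffer with 50 µM zinc acetate.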

| Sequence | binding signal |
| --- | --- |
| TGATGGATTAATATATGATTAATTAAGTATTAGCTTAAACCGGAGTCACCTAGTGCAG | 13200 fluorescence intensity (a.u.) |
| TTTGTGCAAATTAGGCCTATTAATAAAGCCCATTGGGCTTCGGAGTCACCTAGTGCAG | 3640 fluorescence intensity (a.u.) |
| ATAATGATTTATGTAATCATTTAATAGATATAAATGGTTACGGAGTCACCTAGTGCAG | 34600 fluorescence intensity (a.u.) |
| GTGTTATTTATCAATTAAATACCAAATTCAAGATCTATATCGGAGTCACCTAGTGCAG | 11200 fluorescence intensity (a.u.) |
| GGCTCGATTGAACAACCCCACCTGCGAGGGCCGATTCCCCCGGAGTCACCTAGTGCAG | 4140 fluorescence intensity (a.u.) |
| TGATTTTAGTCAATTGATGATCAATATATAACGGATGGAACGGAGTCACCTAGTGCAG | 7850 fluorescence intensity (a.u.) |
| ATCCATCAATTTATATAGAAATCGATGATCAGTTGCTATACGGAGTCACCTAGTGCAG | 13400 fluorescence intensity (a.u.) |
| TTGAGAGATTTGTCAAAATTGATGCCATATCTCAAAGGTACGGAGTCACCTAGTGCAG | 7530 fluorescence intensity (a.u.) |
| CAAAGAAATGATTTATTATAGTAGGTGTTAATTAGCTTTACGGAGTCACCTAGTGCAG | 7810 fluorescence intensity (a.u.) |
| GGCTAATTTGGCGAGGTAATACGGTAGTATAGCACGGTTACGGAGTCACCTAGTGCAG | 10500 fluorescence intensity (a.u.) |
| CCCGATAATCACAATCTATTTGACAACTTGATAACAAATTCGGAGTCACCTAGTGCAG | 18900 fluorescence intensity (a.u.) |
| GGGTGCTGAAATTGATATACGATCAATTGTTGTCGGTGATCGGAGTCACCTAGTGCAG | 14000 fluorescence intensity (a.u.) |
| TAATGGTTTTCAGACAAATGGATAATTAAGCTGATAGCGACGGAGTCACCTAGTGCAG | 65400 fluorescence intensity (a.u.) |
| GAATTGATGAATGTTGAATTTCTGGGTTAATATGTTGCTACGGAGTCACCTAGTGCAG | 13200 fluorescence intensity (a.u.) |
| ACAAGTTTATCCTAATTGCTTCCTGCCACACACTCGTCAACGGAGTCACCTAGTGCAG | 5830 fluorescence intensity (a.u.) |
| GGGCTGACTGGAAAGTGCTGGTCTGTTTCTACTTAATCTGCGGAGTCACCTAGTGCAG | 6740 fluorescence intensity (a.u.) |
| CACTAATCAGTAATCAAGTATAATCAGTTCGGTTTCCGCACGGAGTCACCTAGTGCAG | 29300 fluorescence intensity (a.u.) |
| ATGTGGTAGTTGATTTAGACAAAACAATTACCACTAGATACGGAGTCACCTAGTGCAG | 4950 fluorescence intensity (a.u.) |
| GCTCAATTAACGCACCGATTAAGTTGGTTCATCAGATTAGCGGAGTCACCTAGTGCAG | 11800 fluorescence intensity (a.u.) |
| AGATGATTTGGAGGCAGTAGTTGAGCAGTGAGAAACTCGACGGAGTCACCTAGTGCAG | 7120 fluorescence intensity (a.u.) |
| CATACAAGATTGGCTACATGGGCATCGAGAAATGTAAATACGGAGTCACCTAGTGCAG | 5940 fluorescence intensity (a.u.) |

| Sequence | binding signal |
| --- | --- |
| ACCTTAATCACAAACTCTCTAGTACACCGTGTTTGAACACCGGAGTCACCTAGTGCAG | 4190 fluorescence intensity (a.u.) |
| CATGATTGCTCATCTTTGTATTAAAAGAAATAATTTATGTCGGAGTCACCTAGTGCAG | 53500 fluorescence intensity (a.u.) |
| GCTGATTTAAGGTTACGTGGGTGTGCTTGAGAAGAAGGGGCGGAGTCACCTAGTGCAG | 20300 fluorescence intensity (a.u.) |
| TGAGTCTGATTTACAAAAGACAGTTTTAATTTTGGTGTTCCGGAGTCACCTAGTGCAG | 11600 fluorescence intensity (a.u.) |
| AATCCAATTAAGCTGCGTACATCGCACATTTCGTGCTGCCCGGAGTCACCTAGTGCAG | 5030 fluorescence intensity (a.u.) |
| AGCACATGATTAATTAAGCTTTAATCATTATAAACTTGATCGGAGTCACCTAGTGCAG | 41000 fluorescence intensity (a.u.) |
| CGAAATTTGTTACGTGACATCGTAGCTTTATATGGAAAATCGGAGTCACCTAGTGCAG | 4380 fluorescence intensity (a.u.) |
| AATTAACATCAATAACAAAGTGTTGTACTGTAATCATCTTCGGAGTCACCTAGTGCAG | 4050 fluorescence intensity (a.u.) |
| AAGCTAAATTTAGGAGTTGGAACTCTATCAAACAGGCCTTCGGAGTCACCTAGTGCAG | 4340 fluorescence intensity (a.u.) |
| ACATTTTATTCCAATCATTGCTCTTTATGTTATCAATCTTCGGAGTCACCTAGTGCAG | 13600 fluorescence intensity (a.u.) |
| ACCCAGATTGAGGCCCATTCAAATCAGGCCTGAATTACATCGGAGTCACCTAGTGCAG | 17800 fluorescence intensity (a.u.) |
| ACATATTTTAATTGTTATTTAGAGAAGAGTGTACAATGACCGGAGTCACCTAGTGCAG | 3540 fluorescence intensity (a.u.) |
| GTTAAAATTGGAACGATGTGATGGAAAAGTTAGACGTTTACGGAGTCACCTAGTGCAG | 7780 fluorescence intensity (a.u.) |
| CCAGACAGGATATTTCCAATCGCTGACGAGGTGGGCCCCACGGAGTCACCTAGTGCAG | 3610 fluorescence intensity (a.u.) |
| ATTGACTTCTTGATTGAACGTTCCATCTATAATCTGTTCTCGGAGTCACCTAGTGCAG | 37100 fluorescence intensity (a.u.) |
| ATGTTAGATAGGATGACTGGATGAGTTGGTTACTAAAAGCCGGAGTCACCTAGTGCAG | 7270 fluorescence intensity (a.u.) |
| AGAGATTGGCCTCCTGCATTGATTCAAGATTTCCAAATGGCGGAGTCACCTAGTGCAG | 12500 fluorescence intensity (a.u.) |
| TCACAAATTTTGTAAAATTTGTGTGGCATGGTTCAAATTCCGGAGTCACCTAGTGCAG | 18900 fluorescence intensity (a.u.) |
| CTGGATTACAAATTAGTGCAGGGAAACAGGTACCACTTGTCGGAGTCACCTAGTGCAG | 21400 fluorescence intensity (a.u.) |
| TGGAGAGTTTTGATTGGTTGGGAAGAGAATGTTGATAGAGCGGAGTCACCTAGTGCAG | 20200 fluorescence intensity (a.u.) |
| TCGTTAAATGGTGTTTATATCTACCCTATAGTTAAACAAACGGAGTCACCTAGTGCAG | 3860 fluorescence intensity (a.u.) |
